Measurements as given in PMC4336329 (PLoS ONE, 2015).
Among all 310,000 compounds or so, about 2,200 (0.71%) showed an effect of 50% or more. The effect is printed as a negative number. Some of the results follow.

Molecular target: human ether-à-go-go-related gene (hERG) potassium channel (human, UniProt Q12809)
Test: primary screen, population patch clamp on CHO cells stably expressing hERG

human ether-à-go-go-related gene (hERG) potassium channel, sequence (Q12809 whole entry, looked up): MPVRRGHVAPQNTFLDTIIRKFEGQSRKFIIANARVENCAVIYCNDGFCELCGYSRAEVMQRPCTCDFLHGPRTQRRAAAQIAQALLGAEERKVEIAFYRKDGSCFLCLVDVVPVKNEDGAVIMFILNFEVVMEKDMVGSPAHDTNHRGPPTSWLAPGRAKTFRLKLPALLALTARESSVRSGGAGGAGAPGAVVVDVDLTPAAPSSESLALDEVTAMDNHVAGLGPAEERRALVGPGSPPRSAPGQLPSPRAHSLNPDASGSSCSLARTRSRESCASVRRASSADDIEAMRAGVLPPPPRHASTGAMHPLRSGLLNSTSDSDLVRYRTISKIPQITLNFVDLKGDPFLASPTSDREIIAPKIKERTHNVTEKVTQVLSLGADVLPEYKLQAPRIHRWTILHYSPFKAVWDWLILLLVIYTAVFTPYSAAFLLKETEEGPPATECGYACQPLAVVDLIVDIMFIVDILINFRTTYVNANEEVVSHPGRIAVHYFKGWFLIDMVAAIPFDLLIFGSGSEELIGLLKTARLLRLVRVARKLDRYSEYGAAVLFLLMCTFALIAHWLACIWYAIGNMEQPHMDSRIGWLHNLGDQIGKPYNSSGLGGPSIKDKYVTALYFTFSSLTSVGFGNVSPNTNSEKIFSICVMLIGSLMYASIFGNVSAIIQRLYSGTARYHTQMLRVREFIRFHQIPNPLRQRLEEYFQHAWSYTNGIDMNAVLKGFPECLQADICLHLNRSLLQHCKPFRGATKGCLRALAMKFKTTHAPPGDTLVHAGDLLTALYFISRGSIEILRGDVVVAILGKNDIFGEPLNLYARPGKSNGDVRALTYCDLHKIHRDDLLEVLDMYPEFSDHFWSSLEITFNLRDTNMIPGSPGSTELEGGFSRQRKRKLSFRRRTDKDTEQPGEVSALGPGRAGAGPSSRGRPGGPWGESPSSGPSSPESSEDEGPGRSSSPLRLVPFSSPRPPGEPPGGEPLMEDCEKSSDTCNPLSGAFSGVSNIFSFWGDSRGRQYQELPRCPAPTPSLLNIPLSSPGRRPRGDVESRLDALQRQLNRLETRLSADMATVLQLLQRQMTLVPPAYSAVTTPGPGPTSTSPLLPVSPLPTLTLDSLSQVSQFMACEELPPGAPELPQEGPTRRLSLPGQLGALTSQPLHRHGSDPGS

SMILES | hERG current change (%, negative = inhibition) at 1uM [%]
Cc1ccc(CNc2ccc(N3CCOCC3)c(C(=O)O)c2)s1 | -8.35
CCCCOC(=O)N/N=C/C=C/c1ccccc1 | -0.0129
CCn1cc(C(=O)NCCCOC)c(=O)c2cc(S(=O)(=O)N(C)C)ccc21 | 15.2
COc1ccc(/C=C2/SC(=O)N(CCNC(=O)C3CCCN3C(=O)c3cccs3)C2=O)cc1 (stereo not shown) | 8.92
Cc1ccc(S(=O)(=O)/N=C/c2ccco2)cc1 | 12.8
CCOC(=O)C1CCCN(C(=O)CCn2nnnc2CN2CCOCC2)C1 (stereo not shown) | 13.6
CCC(C)n1c(=N)c(C#N)cc2c(=O)n3ccccc3nc21 (stereo not shown) | -24.6
N#Cc1c(-c2ccccc2)cc(-c2ccc3c(c2)OCO3)[nH]c1=O | 11
Cn1c(SCC(=O)NC2CCCCCC2)nnc1-c1ccco1 | 6.62
CC(C)OCCCNC(=O)CCSc1ccc(Cl)cc1 | 6.01
O=C(Cn1c(=O)n(-c2ccc(F)cc2)c(=O)c2sccc21)c1ccccc1 | 5.42
Cc1cccc(OCCCC(=O)Nc2ccc(S(=O)(=O)Nc3onc(C)c3C)cc2)c1C | 13.9
COC(=O)Cc1ccc2sc(-c3ccccc3)nc2c1 | 12.9
CCOc1ccc(CNc2ncnc(N)n2)cc1 | 7.76
CC1(C)CC2c3cccc(C(=O)O)c3C(=O)N2c2c1ccc1ccccc21 (stereo not shown) | 8.62
COC(=O)[C@@]1(Cc2ccc(F)cc2)[C@H]2c3cc(C(=O)N(C)C)n(Cc4c(CO)[nH]cc(C)c4=O)c3C[C@H]2CN1C(=O)c1ccccc1 | 20.7
COC(=O)/C(C#N)=C/c1c(N2CCN(c3ccccc3)CC2)nc2ccccn2c1=O | -21.6
COC(=O)c1ccc(COc2ncnc3ccccc23)o1 | 18.3
Cc1c(C(=O)OC(C)C)sc(NC(=O)C2CCCO2)c1C(=O)OC(C)C (stereo not shown) | 9.74
O=C(c1cccs1)N1CCCC(c2nc3c(nnn3Cc3ccc(F)cc3)c(=O)[nH]2)C1 (stereo not shown) | 16
COc1ccc(Nc2c(-c3ccc(OC)cc3)nc3cnccn23)cc1 | -6.44
CCn1nc(NS(=O)(=O)c2ccccc2)c2cc3cccc(C)c3nc21 | 7.16

SMILES | hERG current change (%, negative = inhibition) at 1uM [%]
O=C(Cn1nc(C(F)(F)F)c2c1CCCC2)NCc1ccco1 | -11.9
CN(C)C(=O)Oc1noc2cc(Cl)ccc12 | 12.5
CC1(C)CC(=O)C=C(Nc2ccc(Br)cn2)C1 | 10.5
Cc1noc(/C=C/N(C)C)c1S(=O)(=O)N1CCCC(C(=O)NCCC2=CCCCC2)C1 (stereo not shown) | 3.61
CN(CC(=O)Nc1ccc(S(=O)(=O)N2CCCC2)cc1)CC(=O)Nc1ccc(F)c(F)c1F | -2.71
CC1(c2ccccc2)NC(=O)N(CC(=O)Nc2ccccc2N2CCCC2)C1=O (stereo not shown) | 7.44
COc1cccc(NS(=O)(=O)c2ccc(S(=O)(=O)N3CCOCC3)cc2)c1 | -3.54
CC1CCCCC1NC(=O)C1CCN(S(=O)(=O)c2cccc3nonc23)CC1 (stereo not shown) | 12.4
COc1ccc(CCNC(=O)CN(c2ccc(OC)c(OC)c2)S(C)(=O)=O)cc1 | -1.61
CCc1nnc(NC(=O)CSc2nnc(-c3ccco3)o2)s1 | 9.81
COc1ccc(S(=O)(=O)N2CCN(Cc3ccco3)CC2)cc1.O=C(O)C(=O)O | 17.3
Cc1c(C(=O)OC2CCC(C)CC2)[nH]c2c1C(=O)CCC2 (stereo not shown) | 4.17
NC(=O)c1ccc(NCc2ccco2)c([N+](=O)[O-])c1 | 12.9
COc1ccc(C(C(=O)NC2CCCCC2)N(C(=O)c2cccs2)c2ccc3c(c2)OCO3)cc1 (stereo not shown) | 14.3
CC1CC1C(=O)Nc1nc(-c2ccc(Cl)s2)cs1 (stereo not shown) | 14.5
CC(C)CN(Cc1cc(=O)oc2cc(-c3ccccc3)c(O)cc12)CC(C)C | 25.8
O=C1Nc2ccccc2/C1=N/c1sc2c(c1C(=O)NCCc1ccccc1)CCCC2 | 7.93
CC(Oc1ccccc1)C(=O)OCC(=O)Nc1sccc1C(N)=O (stereo not shown) | 3.53
COc1cc(CCNC(=O)CCCn2c(=O)c3cccn3c3cccnc32)cc(OC)c1OC | 14.4
CCOc1ccc(CCNC(=O)CN2CCN(Cc3ccc(F)cc3)C2=O)cc1OCC | 12.4
CCCOC(=O)c1ccc(NC(=O)c2ccccc2[N+](=O)[O-])cc1 | 11.8
O=C(Cn1nc(-c2ccccc2)ccc1=O)Nc1ccc(NC(=O)c2ccccn2)cc1 | 12.2

SMILES | hERG current change (%, negative = inhibition) at 1uM [%]
Cc1ccc(C)c(S(=O)(=O)N2CCN(C(=O)CCc3nc4ccccc4c(=O)[nH]3)CC2)c1 | -4.52
CC(C)(Oc1ccc(Cl)cc1)C(=O)NC1CCN(Cc2ccccc2)CC1 | -44.5
Cc1cccc(NS(=O)(=O)c2cccc(C(=O)N3CCN(c4ccccn4)CC3)c2)c1 | 14.4
CCn1c(SCc2nc3ccccc3nc2C)nnc1-c1cccs1 | 6.23
COc1ccc(-c2cc(NC(=O)c3cncn3-c3ccccc3)ccc2OC)cc1 | 11
CCCCOc1ccc(/C=C2/Sc3ccccc3C2=O)cc1 | 6.29
COc1ccccc1CNN.Cl | 13.8
Cc1ccccc1C(=O)Nc1ccc(Cl)cn1 | 6.95
O=C(COC(=O)c1cc[n+]([O-])cc1)Nc1ccc(SC(F)F)cc1 | -0.0806
CCOC(=O)c1ccc(S(=O)(=O)N2CCC(C(=O)NCC3CCCCC3)CC2)cc1 | 9.18
Cc1cc(N2CCCC2)ccc1NC(=O)CN1C(=O)NC2(CCCCC2)C1=O | 6
CCOc1cc(NC(=O)C2CCCCC2)c(OCC)cc1NC(=O)c1ccccn1 | 11.9
CCOc1ccc(N/C(C)=C/C(=O)c2ccc3c(c2)OCCO3)cc1 | 11.9
Cc1ccc(S(=O)(=O)N2CCN(Cc3cc4c(cc3Br)OCCO4)CC2)cc1 | 6.52
Cn1c(Oc2ccccc2NCc2cc(Br)ccc2O)cc(=O)n(C)c1=O | 11.8
CCN(CC)S(=O)(=O)c1ccc(N/N=C(\C)c2ccncc2)c([N+](=O)[O-])c1 | 13.6
Cc1nnc(Oc2ccccc2F)c2ccccc12 | 11.8
Cc1[nH]ccc(=O)c1Cc1c(Cl)cccc1Cl | -1.69
N/C(=N\OC(=O)c1ccncc1)c1cccc([N+](=O)[O-])c1 | 7.79
Cc1cc(C)c2c(CN3CCN(Cc4ccccc4)CC3)cc(=O)oc2c1C.Cl | -7.5
CN(CC(=O)Nc1ccccc1Cl)C(=O)COC(=O)CSc1ccc(Cl)cc1 | 10.3
COc1ccc(/C=N/n2cnc3c([nH]c4ccccc43)c2=O)cc1COc1ccccn1 | 5.27

SMILES | hERG current change (%, negative = inhibition) at 1uM [%]
C/C(=N/NC(=O)c1ccc(Cl)s1)c1cccnc1 | 4.7
Cc1sc(NC(=O)CSc2nnc(COc3ccc(Cl)cc3)n2C)c(C#N)c1C | 12.1
c1ccc(CNc2ccc3ccccc3n2)nc1 | 4.46
Cc1cc(C)n(-c2nc3ccccc3nc2Nc2ccc3[nH]c(=O)[nH]c3c2)n1 | 1.42
CCN(CCCNC(=O)CCc1nc(-c2ccc(C)cc2)no1)c1cccc(C)c1 | 7.68
O=C(CCCOc1ccc(Cl)cc1)Nc1ccc(N2CCOCC2)cc1 | 10.7
Cc1ccc(C(=O)CCC(=O)Nc2cc(C)ccn2)cc1 | 3.03
Nc1nnn(CC(=O)N/N=C/c2ccccc2Cl)n1 | 14.4
Cn1ccnc1C1CCCCN1C(=O)c1cc(COc2ccc(F)cc2Cl)on1 (stereo not shown) | 1.66
O=C(NCCc1ccc2c(c1)OCCO2)c1cc2ccccc2o1 | -16.6
S=C(NCCc1ccccn1)NC1CCCCC1 | 11.3
Cc1ccc(C2OC34CCCCCC3C(C#N)(C(=N)O4)C2(C#N)C#N)cc1 (stereo not shown) | 9.09
c1ccc(-c2noc(-c3ccc4c(c3)OCO4)n2)nc1 | 14.3
O=C(O)CN(Cc1ccco1)S(=O)(=O)c1ccc(F)cc1 | 11.9
Br.CCn1c(-c2ccccc2)csc1=Nc1ccc(O)cc1 | 4.88
CC(=O)Nc1ccc(NC(=O)c2ccc(NC(=O)c3ccccc3)cc2)cc1 | -4.31
Cn1nc(OC(=O)Nc2ccc(F)cc2)cc1C(F)(F)F | 2.69
CNC(=S)N(CCc1c(C)[nH]c2ccccc12)Cc1cccnc1 | 7.21
O=C(Nc1ccccc1C(=O)Nc1ccc(F)cc1)c1ccco1 | 6.37
COc1ccccc1C1C2=C(N=c3s/c(=C/c4cccc(OCC(=O)O)c4)c(=O)n31)c1ccccc1CC2 (stereo not shown) | 23.4
CCCCn1cc(SCC(=O)O)c2ccccc21 | 7.37
COc1ccc(C(=O)Nc2nccs2)cc1 | 14.1
